From PMC4336329 (PLoS ONE, 2015)
Out of some 310,000 compounds screened, about 2,200 (0.71%) showed an effect of 50% or more. Effects have a minus sign here. Some of the results follow.

target: human ether-à-go-go-related gene (hERG) potassium channel (human, UniProt Q12809); test: primary screen, population patch clamp on CHO cells stably expressing hERG
Sequence (Q12809 whole entry, looked up): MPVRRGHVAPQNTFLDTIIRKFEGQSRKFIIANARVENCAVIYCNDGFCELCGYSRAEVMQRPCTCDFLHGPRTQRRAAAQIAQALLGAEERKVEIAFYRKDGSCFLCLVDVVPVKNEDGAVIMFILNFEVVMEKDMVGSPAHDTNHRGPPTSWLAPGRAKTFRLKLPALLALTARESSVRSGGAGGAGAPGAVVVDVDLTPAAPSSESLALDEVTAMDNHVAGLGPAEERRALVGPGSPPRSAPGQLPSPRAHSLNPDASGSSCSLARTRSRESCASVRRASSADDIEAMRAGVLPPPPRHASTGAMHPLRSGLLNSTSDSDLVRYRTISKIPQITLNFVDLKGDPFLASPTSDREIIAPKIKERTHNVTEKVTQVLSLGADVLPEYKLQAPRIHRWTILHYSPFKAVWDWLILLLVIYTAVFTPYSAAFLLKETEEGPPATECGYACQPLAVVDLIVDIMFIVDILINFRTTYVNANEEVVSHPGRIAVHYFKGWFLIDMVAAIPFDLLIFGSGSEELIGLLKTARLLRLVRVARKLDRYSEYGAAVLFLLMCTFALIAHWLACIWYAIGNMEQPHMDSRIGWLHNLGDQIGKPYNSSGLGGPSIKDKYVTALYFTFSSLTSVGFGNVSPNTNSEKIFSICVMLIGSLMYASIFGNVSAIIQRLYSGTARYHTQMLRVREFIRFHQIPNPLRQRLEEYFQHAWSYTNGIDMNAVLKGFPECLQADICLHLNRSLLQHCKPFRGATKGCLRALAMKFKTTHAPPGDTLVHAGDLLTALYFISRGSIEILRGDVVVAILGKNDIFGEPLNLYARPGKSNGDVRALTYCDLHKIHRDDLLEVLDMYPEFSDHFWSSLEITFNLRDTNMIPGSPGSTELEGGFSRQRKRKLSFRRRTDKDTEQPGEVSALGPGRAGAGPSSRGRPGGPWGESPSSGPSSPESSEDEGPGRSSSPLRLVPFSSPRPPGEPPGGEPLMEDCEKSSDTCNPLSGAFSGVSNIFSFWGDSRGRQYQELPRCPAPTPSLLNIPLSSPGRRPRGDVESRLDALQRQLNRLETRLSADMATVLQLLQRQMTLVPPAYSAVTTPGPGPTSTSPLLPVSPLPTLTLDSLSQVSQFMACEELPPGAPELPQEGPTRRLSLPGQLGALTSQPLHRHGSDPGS

Row | Compound | hERG current change (%, negative = inhibition) at 1uM [%]
1 | Cn1ccc(C(=O)N2CCCc3ccccc32)n1 | 13.1
2 | COc1ccc(/C=N/Nc2nc(-c3ccc(C)cc3)c(NC(C)=O)s2)cc1 | 11.2
3 | C/C(=N\NC(=O)CC#N)c1cc2ccccc2oc1=O | 12.7
4 | CCN(CC)S(=O)(=O)c1cccc(-c2nnc(SCC(=O)N3CCC(C(=O)O)CC3)n2N)c1 | -4.8
5 | O=C(NCC1CCN(Cc2ccccc2Cl)CC1)Nc1cccc(Cl)c1 | -62.3
6 | Cc1ccccc1NS(=O)(=O)c1ccc(C(=O)OCC(=O)NCC(C)C)cc1 | 13.6
7 | CCOc1cc(C(=O)NC(=S)Nc2ccc(Cl)c(C(=O)O)c2)cc(OCC)c1OCC | 9.91
8 | O=C(NCc1cnc2ccccn12)C1CCC(=O)N(Cc2ccccc2F)C1 (centres unmarked) | 12.5
9 | Cc1ccc(OCCCN(C)C)c(Br)c1 | -3.3
10 | Cc1ccc(C(C)C)cc1S(=O)(=O)Nc1ccncc1 | 12.8
11 | CCN(C(=O)CSc1nc2ccc(OC)cc2[nH]1)C1CCS(=O)(=O)C1 (centres unmarked) | 9.11
12 | Cc1ccc(-n2c(C)c([N+](=O)[O-])c3ccc(O)cc32)cc1 | 8.05
13 | COC(CNC(=O)CCc1c(C)nc2c(c(C)nn2-c2ccc(C)cc2)c1C)OC | 12.1
14 | O=C(Nc1c(Cl)cc(Cl)cc1C(=O)NCC1CCCO1)c1ccco1 (centres unmarked) | 5.39
15 | CC1CCCN(C(=O)CSc2nnc(-c3ccc(S(=O)(=O)N4CCOCC4)cc3)n2C)C1 (centres unmarked) | 10.4
16 | CCN1CCN(C(c2cccs2)C(C)NC(=S)Nc2cccc(C)c2C)CC1 (centres unmarked) | -31.8
17 | Cc1cc(C)c2c(=O)n(-c3ccccc3)[nH]c2n1 | 11.3
18 | CC(C)(C)C1(O)CC(C(F)(F)F)=NN1C(=O)CCc1ccccc1 (centres unmarked) | -18.1
19 | NC(=O)COC(=O)c1ccc(Cl)c(S(=O)(=O)N(Cc2ccccc2)c2ccc(Cl)cc2)c1 | 7.96

Row | Compound | hERG current change (%, negative = inhibition) at 1uM [%]
20 | C=CCN1CC2(c3ccccc3)CN(CC=C)CC(c3ccccc3)(C1)C2=O | 2.26
21 | O=C(c1cc(COc2ccc(F)cc2F)on1)N1CCCC(c2ccccc2)C1 (centres unmarked) | 10.1
22 | Cc1cc(C)c2oc(=O)cc(CN3CCOCC3)c2c1 | 12.7
23 | CC(NS(C)(=O)=O)C(c1cccs1)N1CCN(C)CC1 (centres unmarked) | 13.4
24 | CC1=C(C(=O)Nc2ccccc2C(F)(F)F)C(c2sccc2C)NC(=S)N1 (centres unmarked) | 18.1
25 | Cc1cc(C)cc(N2CC(O)=C(c3nc4ccccc4c(=O)[nH]3)C2=N)c1 | 12
26 | O=C(Nc1ccc(S(=O)(=O)N2CCCC2)cc1)c1cncc(Br)c1 | 3.3
27 | CSc1ccc(/C=C/c2ccc3cccc(O)c3n2)cc1 | 11.3
28 | CC(C)n1nccc1N(Cc1ccc(Br)cc1)S(=O)(=O)c1ccccc1 | -3.38
29 | COc1ccc(C2/C(=C(/O)c3ccccc3)C(=O)C(=O)N2C)cc1 (centres unmarked) | 10.6
30 | C=Cc1ccc(CN2CCCN(Cc3ccc(F)cc3)S2(=O)=O)cc1 | 3.19
31 | CCc1cc2c(CN3CCN(Cc4ccccc4)CC3)cc(=O)oc2cc1O | 12.4
32 | N=C1C(c2ccc(Br)cc2)=C(O)C2CCc3ccccc3N12 (centres unmarked) | -1.51
33 | Cc1ccc(CN2C(=O)c3ccccc3C2C(=O)NCc2cccnc2)cc1 (centres unmarked) | 4.36
34 | COc1ccc(-c2cc3c(=O)n(CC(=O)NCc4ccc(Cl)cc4)ncn3n2)cc1 | 18.6
35 | O=C(CSc1ccc2nnc(-c3ccncc3)n2n1)Nc1ccc2c(c1)OCCO2 | 6.23
36 | O=C(ON=C1CCN(S(=O)(=O)c2ccccc2)CC1)c1ccc(Cl)cc1 | 11.4
37 | CCOC(=O)C1CCN(C(=O)C2CCCN(c3ncnc4c3nc3n4CCCCC3)C2)CC1 (centres unmarked) | 1.8
38 | NC(=O)C1CCN(C(=O)CCSc2ccc(Cl)cc2)CC1 | 3.66

Row | Compound | hERG current change (%, negative = inhibition) at 1uM [%]
39 | O=[N+]([O-])c1ccccc1/C=C/CN1CCC(O)CC1 | 17
40 | Cc1cccc2cc(CN(Cc3nnnn3C3CCCC3)C3CCCCC3)c(=O)[nH]c12 | 2.98
41 | O=C(O)c1cccc(NS(=O)(=O)c2cccc3nsnc23)c1 | 11.1
42 | C/C(Nc1ccc(Cl)cc1)=C(/C#N)C(N)=O | 16.5
43 | COc1ccccc1OCc1ccc(C(=O)Nc2ccccc2F)cc1 | 3.8
44 | CCOc1cc(C(=O)NC2CC(C)(C)NC(C)(C)C2)cc(OCC)c1OCC | 13.6
45 | COc1ccc(C(=O)COC(=O)c2c(-c3ccccc3)noc2C)c(OC)c1 | 17.4
46 | COC(=O)C1=C(c2ccc(S(C)(=O)=O)cc2)C[C@@H]2CC[C@H]1N2C(=O)NCc1ccco1 | 10.6
47 | C/C(=N\O)C(=O)Nc1ccccc1 | 5.51
48 | O=C(Nc1ccc2c(c1)OCCO2)c1cc(-c2ccccn2)nc2ccc(Br)cc12 | 11
49 | CCn1c(SCC(=O)OC)nnc1-c1c[nH]c2ccccc12 | 4.76
50 | CCOC(=O)CNC(=S)N1CCn2c(nc3ccccc32)C1 | -0.114
51 | CCCN(Cc1ccccc1)C(=S)Nc1cccc(C)c1C | 21.4
52 | COc1cc(/C=C(\C#N)c2nc3ccc(C)cc3[nH]2)c([N+](=O)[O-])cc1OC | 13.3
53 | O=C(c1ccccc1F)N1C[C@H]2C[C@@H](C1)c1cccc(=O)n1C2 | 13.3
54 | COc1ccc(OC)c(NC(=S)N2CCN(C/C=C/c3ccccc3)CC2)c1 | -6.57
55 | O=S1(=O)c2ccccc2N=NN1Cc1cc(Cl)cc(Cl)c1 | 2.05
56 | O=C(Nc1ccccc1)N1CCCN(c2ccc(C(F)(F)F)cc2[N+](=O)[O-])CC1 | -1.68
